# Residue numbers refer to the chain shown, from its start. The list shows a part of the results.
# T1: RBFOX1 RRM (Homo sapiens, UniProt Q9NWB1 109-208)
# T1 sequence: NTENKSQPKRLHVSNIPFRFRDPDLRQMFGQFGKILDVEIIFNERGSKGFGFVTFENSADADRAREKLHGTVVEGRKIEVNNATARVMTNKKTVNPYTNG
# B1: GGGCGGC (DNA:RNA)
# RNA: GGGAGACCGGAAUUCAGAUUGUCCGGGCGGCUUAAAUCCCGUCGUAGCCACCA
# DNA 1: CAATCTGAATTCCGGTCTCCC
# DNA 2: TGGTGGCTACGACGGGATT
# B2: GUAAGCG (DNA:RNA)
# RNA: B1 RNA with G26U, G27A, C28A, G30C, C31G
# DNA 1: CAATCTGAATTCCGGTCTCCC
# DNA 2: TGGTGGCTACGACGGGATT
# B3: UAGUUCA (DNA:RNA)
# RNA: B1 RNA with G25U, G26A, C28U, G29U, G30C, C31A
# DNA 1: CAATCTGAATTCCGGTCTCCC
# DNA 2: TGGTGGCTACGACGGGATT
# B4: UGACCAG (DNA:RNA)
# RNA: B1 RNA with G25U, G27A, G29C, G30A, C31G
# DNA 1: CAATCTGAATTCCGGTCTCCC
# DNA 2: TGGTGGCTACGACGGGATT
# B5: CUGGCUG (DNA:RNA)
# RNA: B1 RNA with G25C, G26U, C28G, G29C, G30U, C31G
# DNA 1: CAATCTGAATTCCGGTCTCCC
# DNA 2: TGGTGGCTACGACGGGATT
# B6: GAACGCU (DNA:RNA)
# RNA: B1 RNA with G26A, G27A, G30C, C31U
# DNA 1: CAATCTGAATTCCGGTCTCCC
# DNA 2: TGGTGGCTACGACGGGATT
# B7: CCUGCAU (DNA:RNA)
# RNA: GGGAGACCGGAAUUCAGAUUGUCCCCUGCAUUUAAAUCCCGUCGUAGCCACCA
# DNA 1: CAATCTGAATTCCGGTCTCCC
# DNA 2: TGGTGGCTACGACGGGATT
# B8: CCAUGGC (DNA:RNA)
# RNA: B1 RNA with G25C, G26C, G27A, C28U
# DNA 1: CAATCTGAATTCCGGTCTCCC
# DNA 2: TGGTGGCTACGACGGGATT
# B9: AGGGUCC (DNA:RNA)
# RNA: B1 RNA with G25A, C28G, G29U, G30C
# DNA 1: CAATCTGAATTCCGGTCTCCC
# DNA 2: TGGTGGCTACGACGGGATT
# Molecular target: T1, RBFOX1 RRM
# Assay: EMSA; HiTS-Eq, 1 nM pool, 10 min; buffer printed only for the single-RNA assays: 10 mM Tris pH 7.5, 150 mM NaCl, 3.4 mM EDTA, 0.001% NP-40, 30 C
# Conditions: tags: His6 N-terminal (pET28a); label: 5' 32P
# Procedure, shortened: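 Relative association constants, normalised to the cognate motif, were derived by comparing read counts of each RNA species with those of the control reaction. The RNA sequenced was the free fraction, separated by 8% native PAGE after a 10 min equilibration in 50 µL of 1 nM 5′-radiolabelled RNA (7 randomized nucleotides) with increasing concentrations of purified wild-type or mutant RbFox RRM.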
row,Binder,binding signal
1,B1,0.0231 KA relative to UGCAUGU
2,B2,0.0139 KA relative to UGCAUGU
3,B3,0.00722 KA relative to UGCAUGU
4,B4,0.0127 KA relative to UGCAUGU
5,B5,0.0348 KA relative to UGCAUGU
6,B6,0.0123 KA relative to UGCAUGU
7,B7,0.0157 KA relative to UGCAUGU
8,B8,0.0106 KA relative to UGCAUGU
9,B9,0.0256 KA relative to UGCAUGU

# — publication PMC9911399, “Two distinct binding modes provide the RNA-binding protein RbFox with extraordinary sequence specificity”
